These results are taken from PMC12434519 (ACS Medicinal Chemistry Letters, 2025).

The target of assay [1] is T1, SARS-CoV-2 NSP14 (Severe acute respiratory syndrome coronavirus 2, UniProt P0DTD1). Conditions: for ∆TM (°C) / Average Tm NSP14 (ºC) + compound + SAH: HTS hits; for Average Tm NSP14 (ºC) + compound + SAH: NSP14 + SAH 48.0; for TM of NSP14 + SAH + compound (ternary complex) / TM of NSP14 + compound (absence of SAH): n = 3; for TM Replicate 1 (ºC) (NSP14+SAH+cmpd): NSP14+SAH 47; for TM Replicate 1 (ºC) (NSP14+SAH+cmpd) / TM (ºC) (NSP14+compound): SBVS hits; for TM (ºC) (NSP14+compound): NSP14 alone 43.

Assay [2] deals with T1, SARS-CoV-2 NSP14. In words: biochemical.
[3] abbreviates: Sheet1, NSP14+SAH+compound vs NSP14+SAH.
Setting [4] is: LUM % inhibition, read-out: SARS-CoV-2 NSP14 inhibition: IC50.
The mark [5] stands for this setting: LUM % inhibition, read-out: SARS-CoV-2 NSP14 inhibition: Maximum response.
The mark [6] stands for this setting: fit of concentration-response curve.
Where [7] appears, read: TDI-015051 series, retrospective VS set, biochemical MTase assay, read-out: Merged IC50.

Several values for one entry are separate records, joined by “and”; a condition that tells them apart may be missing. Identical values can stand only once. Like-named read-outs stand apart in the source and are kept apart here. A value given as a limit tells only on which side of the number the result lay.

One may read the IC50 as the midpoint of a concentration-inhibition curve. Consider `CCCCc1ccc(S(=O)(=O)c2cnc(SCC(=O)Nc3nccs3)[nH]c2=O)cc1` [RU-0369737, CCCCC1=CC=C(S(=O)(=O)C2=CN=C(SCC(=O)NC3=NC=CS3)NC2=O)C=C1], for which the “∆TM (°C)” value in assay [1] (setting [3]) stood at 1.5 °C; in assay [1] (Sheet2, compound + SAH vs SAH) it was 1.5 °C. In addition, in assay [1], the “Average Tm NSP14 (ºC) + compound + SAH” value is 49.5 ºC. Also, in assay [2] (0.75 h, read-out: NSP14 SARS COV2 : Maximum measured (%)), the Emax stood at 79.6%. The “NSP14 SARS COV2 : Hill slope” value in assay [2] (HTS hits, Sheet2) was determined as 0.954. Also, the IC50 in assay [2] (HTS hits, Suppl. Table 3 Sheet1, read-out: IC50) was determined as 7.1 µM.
For `Cc1cc(S(=O)(=O)c2cc(C(=O)NCc3c(F)ccc4cnn(C5CC5)c34)n(C)c2C)cc2cn[nH]c12` [TDI-016037], in assay [1], the “TM of NSP14 + SAH + compound (ternary complex)” value (“TM of NSP14 + SAH + compound” for short) was determined as 69.8 °C and the “TM of NSP14 + compound (absence of SAH)” value was 44.7 °C. For the same compound, in assay [2] (Inhibition of SARS-CoV-2 NSP14: IC50, Figure 1b, n = 3), the IC50 is no more than 0.00015 µM.
In the case of `Cc1cnc(C(=O)NCc2ccc(CNC(=O)c3ccc(O)c(C)c3)cc2)c(C)c1` [RU-0834201, CC1=CC(C)=C(C(=O)NCC2=CC=C(CNC(=O)C3=CC=C(O)C(C)=C3)C=C2)N=C1], the “TM of NSP14 + SAH + compound” value in assay [1] (DSF, NSP14 + SAH 47.3 °C) is 49.0 ± 0.0 °C and 49.0 °C. In assay [1] (DSF, NSP14 alone […]), the “TM of NSP14 + compound (absence of SAH)” value is 42.5 ± 0.5 °C. Also, the “TM Replicate 1 (ºC) (NSP14+SAH+cmpd)” value in assay [1] was 49 ºC. Moreover, the “TM (ºC) (NSP14+compound)” value in assay [1] was 43 ºC. Moreover, the IC50 in assay [2] (setting [4]) was 3.01 µM; in assay [2] (n = 3, read-out: IC50 for the inhibition of SARS-CoV-2 NSP14 (95% CI)), 3 µM. Further, in assay [2] (setting [5]), the Emax amounted to 92.9%. The “SARS-CoV-2 NSP14 inhibition: Hill slope” value in assay [2] (SBVS hits) and in assay [2] (setting [6]) was 1.22 throughout.
Consider `Cc1ccc(C)c(C(=O)NCC2CCC3(CN(C(=O)c4cc(C)c(O)c(C)c4)C3)O2)c1C` (centres unmarked) [RU-0834178, CC1=CC(C(=O)N2CC3(C2)CCC(CNC(=O)C2=C(C)C=CC(C)=C2C)O3)=CC(C)=C1O], for which the “TM of NSP14 + SAH + compound” value in assay [1] (DSF, NSP14 + SAH 47.3 °C) came out at 49.3 ± 0.3 °C. In addition, the “TM of NSP14 + compound (absence of SAH)” value in assay [1] (DSF, NSP14 alone […]) stood at 42.7 ± 0.6 °C. Besides, in assay [1], the “TM Replicate 1 (ºC) (NSP14+SAH+cmpd)” value is on record as 49 ºC and the “TM (ºC) (NSP14+compound)” value is 43 ºC.
For `COc1ccccc1CNC(=O)c1cc(S(=O)(=O)N2CCC(C)CC2)c(C)n1C` [RU-0415529, COC1=CC=CC=C1CNC(=O)C1=CC(S(=O)(=O)N2CCC(C)CC2)=C(C)N1C], the “∆TM (°C)” value in assay [1] (setting [3]) amounted to 5.0 °C; in assay [1] (Sheet2, compound + SAH vs SAH), 5.0 °C. The “Average Tm NSP14 (ºC) + compound + SAH” value in assay [1] is 53.0 ºC.
For `Cc1c(S(=O)(=O)N2CCc3[nH]ncc3C2)cc(C(=O)NCc2c(F)ccc3occc23)n1C` [TDI-015051], in assay [1], the “TM of NSP14 + SAH + compound” value came to 64.8 °C and the “TM of NSP14 + compound (absence of SAH)” value is given as “did not increase”.
`CC1CN(C(=O)c2ccc(CNC(=O)c3ncn4ccccc34)cn2)Cc2c[nH]nc21` (centres unmarked) [RU-0834115]: in assay [2] (setting [4]), the IC50 is greater than 125 µM. In addition, the Emax in assay [2] (setting [5]) amounted to 14.9%. Also, the “SARS-CoV-2 NSP14 inhibition: Hill slope” value in assay [2] (setting [6]) was 14.3.
For the compound `Cc1c(S(=O)(=O)N2CCn3cncc3C2)cc(C(=O)NCc2cccc3cnccc23)n1C` [TDI-014695, Cc1c(S(=O)(=O)N2CCn3cncc3C2)cc(C(=O)NCc2cccc3cnccc23)n1C], the concentration for half-maximal inhibition (IC50) in assay [2] (setting [7]) worked out at 0.00249 µM.
Turning to `Cc1sc(C(=O)NCc2cccnc2N2CCCC2)cc1S(=O)(=O)N1CCn2nccc2C1` [TDI-014253, Cc1sc(C(=O)NCc2cccnc2N2CCCC2)cc1S(=O)(=O)N1CCn2nccc2C1], the IC50 in assay [2] (setting [7]) is 0.0957 µM.
With `Cc1cc(C(=O)N2CC3(CCC(CNC(=O)c4n[nH]c5ccccc45)O3)C2)cc2cn[nH]c12` (centres unmarked) [RU-0834175], the IC50 in assay [2] (setting [4]) turned out to be 21.6 µM. For the same compound, in assay [2] (setting [5]), the Emax turned out to be 64.7%. Also, the “SARS-CoV-2 NSP14 inhibition: Hill slope” value in assay [2] (setting [6]) is given as 0.895.
On to `CC(NC(=O)c1cccc(S(=O)(=O)Nc2cccc(Cl)c2)c1)c1ccc2c(c1)OCCO2` (centres unmarked) [RU-0833934], for which, in assay [2] (setting [4]), the IC50 was greater than 125 µM. Moreover, the Emax in assay [2] (setting [5]) was 9.86%. Moreover, the “SARS-CoV-2 NSP14 inhibition: Hill slope” value in assay [2] (setting [6]) is recorded as 2.93.
